Results published in the supplement of paper PMC8728848.
The list shows a part of the results.

Legend:
Experiment in all cases: glycan array binding signal (z-score within array); higher = stronger binding
Conditions in all cases: glycan notation: IUPAC condensed, linker removed
GlcNAc(b1-3)Gal(b1-4)Glc = target: GlcNAc(b1-3)Gal(b1-4)Glc
Summary of the method: (§1)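 Columns mapping to the same glycan were averaged after glycan names were converted to IUPAC-condensed notation. The data come from 3228 arrays in the Consortium for Functional Glycomics database, limited to those with an available protein sequence. Binding is reported as a within-array Z-score averaged across arrays of one protein sequence and across linkers.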

[1] = target: GlcNAc(b1-3)Gal(b1-4)GlcNAc
Summary of the method: as §1

[2] = target: GlcNAc(b1-3)Gal(b1-4)GlcNAc(b1-3)Gal(b1-4)GlcNAc
Summary of the method: as §1

GlcNAc(b1-3)GalNAc = target: GlcNAc(b1-3)GalNAc
Summary of the method: as §1

GlcNAc(b1-3)Man = target: GlcNAc(b1-3)Man
Summary of the method: as §1

[3] = target: GlcNAc(b1-3)[GlcNAc(b1-4)][GlcNAc(b1-6)]GlcNAc
Summary of the method: as §1

[4] = target: GlcNAc(b1-3)[GlcNAc(b1-6)]Gal(b1-4)GlcNAc
Summary of the method: as §1

[5] = target: GlcNAc(b1-3)[GlcNAc(b1-6)]GalNAc
Summary of the method: as §1

[6] = target: GlcNAc(b1-4)Gal(b1-4)GlcNAc
Summary of the method: as §1

GlcNAc(b1-4)GlcNAc = target: GlcNAc(b1-4)GlcNAc
Summary of the method: as §1

[7] = target: GlcNAc(b1-4)GlcNAc(b1-4)GlcNAc
Summary of the method: as §1

[8] = target: GlcNAc(b1-4)GlcNAc(b1-4)GlcNAc(b1-4)GlcNAc(b1-4)GlcNAc
Summary of the method: as §1

[9] = target: GlcNAc(b1-4)GlcNAc(b1-4)GlcNAc(b1-4)GlcNAc(b1-4)GlcNAc(b1-4)GlcNAc
Summary of the method: as §1

[10] = target: GlcNAc(b1-4)[GlcNAc(b1-6)]GalNAc
Summary of the method: as §1

[11] = target: GlcNAc(b1-6)Gal(b1-4)GlcNAc
Summary of the method: as §1

GlcNAc(b1-6)GalNAc = target: GlcNAc(b1-6)GalNAc
Summary of the method: as §1

GlcNAc3Prop(b1-4)GlcNAc = target: GlcNAc3Prop(b1-4)GlcNAc
Summary of the method: as §1

Kdn(a2-3)Gal(b1-3)GlcNAc = target: Kdn(a2-3)Gal(b1-3)GlcNAc
Summary of the method: as §1

Kdn(a2-3)Gal(b1-4)GlcNAc = target: Kdn(a2-3)Gal(b1-4)GlcNAc
Summary of the method: as §1

[12] = target: Man(a1-2)Man(a1-2)Man(a1-3)Man
Summary of the method: as §1

[13] = target: Man(a1-2)Man(a1-2)Man(a1-6)[Man(a1-3)]Man
Summary of the method: as §1

Man(a1-2)Man(a1-3)Man = target: Man(a1-2)Man(a1-3)Man
Summary of the method: as §1

[14] = target: Man(a1-2)Man(a1-3)[Man(a1-2)Man(a1-6)]Man
Summary of the method: as §1

[15] = target: Man(a1-2)Man(a1-3)[Man(a1-2)Man(a1-6)]Man(a1-6)[Man(a1-2)Man(a1-2)Man(a1-3)]Man
Summary of the method: as §1

[16] = target: Man(a1-2)Man(a1-3)[Man(a1-2)Man(a1-6)]Man(a1-6)[Man(a1-2)Man(a1-2)Man(a1-3)]Man(b1-4)GlcNAc(b1-4)GlcNAc
Summary of the method: as §1

[17] = target: Man(a1-2)Man(a1-3)[Man(a1-6)]Man(a1-6)[Man(a1-2)Man(a1-3)]Man(b1-4)GlcNAc(b1-4)GlcNAc
Summary of the method: as §1

[18] = target: Man(a1-2)Man(a1-6)[Man(a1-3)]Man(a1-6)[Man(a1-2)Man(a1-2)Man(a1-3)]Man
Summary of the method: as §1

[19] = target: Man(a1-2)Man(a1-6)[Man(a1-3)]Man(a1-6)[Man(a1-2)Man(a1-2)Man(a1-3)]Man(b1-4)GlcNAc(b1-4)GlcNAc
Summary of the method: as §1

Man(a1-3)[Man(a1-6)]Man = target: Man(a1-3)[Man(a1-6)]Man
Summary of the method: as §1

[20] = target: Man(a1-3)[Man(a1-6)]Man(a1-6)[Man(a1-2)Man(a1-3)]Man(b1-4)GlcNAc(b1-4)GlcNAc
Summary of the method: as §1

[21] = target: Man(a1-3)[Man(a1-6)]Man(a1-6)[Man(a1-3)]Man
Summary of the method: as §1

[22] = target: Man(a1-3)[Man(a1-6)]Man(a1-6)[Man(a1-3)]Man(b1-4)GlcNAc(b1-4)GlcNAc
Summary of the method: as §1

[23] = target: Man(a1-3)[Man(a1-6)]Man(b1-4)GlcNAc(b1-4)GlcNAc
Summary of the method: as §1

Man(a1-6)Man = target: Man(a1-6)Man
Summary of the method: as §1

Man(b1-4)GlcNAc = target: Man(b1-4)GlcNAc
Summary of the method: as §1

Neu5Ac(a2-3)Gal = target: Neu5Ac(a2-3)Gal
Summary of the method: as §1

[24] = target: Neu5Ac(a2-3)Gal(b1-3)GalNAc
Summary of the method: as §1

[25] = target: Neu5Ac(a2-3)Gal(b1-3)GalNAc(b1-3)Gal(a1-4)Gal(b1-4)Glc
Summary of the method: as §1

[26] = target: Neu5Ac(a2-3)Gal(b1-3)GalNAc(b1-3)Gal(b1-4)GlcNAc
Summary of the method: as §1

[27] = target: Neu5Ac(a2-3)Gal(b1-3)GalNAc(b1-4)[Neu5Ac(a2-3)]Gal(b1-4)Glc
Summary of the method: as §1

[28] = target: Neu5Ac(a2-3)Gal(b1-3)GalNAc6S
Summary of the method: as §1

[29] = target: Neu5Ac(a2-3)Gal(b1-3)GlcNAc
Summary of the method: as §1

[30] = target: Neu5Ac(a2-3)Gal(b1-3)GlcNAc(b1-3)Gal(b1-3)GlcNAc
Summary of the method: as §1

[31] = target: Neu5Ac(a2-3)Gal(b1-3)GlcNAc6S
Summary of the method: as §1

[32] = target: Neu5Ac(a2-3)Gal(b1-3)[Fuc(a1-4)]GlcNAc
Summary of the method: as §1

B1: CBM32-1 (Clostridium perfringens) (protein)
chain: MGSSHHHHHHSSGLVPRGSHMASGVEITEGVTVTAKGNTEGNTADLAIDGDLSTYWESSNDYKWIEVDLGGIYELSKIEIFNKDEAVYKYNIYASEDGENFNKIAYKNNDNVSDSNGNVHTIDNVRAGKIRIDVVQNSNSDRVNIAEINVFG
B1 was tested, and the “glycan array binding signal (z-score)” value (GlcNAc(b1-3)Gal(b1-4)Glc) was -0.257, the “glycan array binding signal (z-score)” value [1] was -0.271 and the “glycan array binding signal (z-score)” value [2] was -0.71. For the same binder, the “glycan array binding signal (z-score)” value (GlcNAc(b1-3)GalNAc) was -0.476, the “glycan array binding signal (z-score)” value (GlcNAc(b1-3)Man) was -0.618 and the “glycan array binding signal (z-score)” value [3] was -0.577. The “glycan array binding signal (z-score)” value [4] was -0.217, the “glycan array binding signal (z-score)” value [5] was -0.441 and the “glycan array binding signal (z-score)” value [6] was -0.314. The “glycan array binding signal (z-score)” value (GlcNAc(b1-4)GlcNAc) was -0.55, the “glycan array binding signal (z-score)” value [7] was -0.413 and the “glycan array binding signal (z-score)” value [8] was 5.14. The “glycan array binding signal (z-score)” value [9] was 1.53, the “glycan array binding signal (z-score)” value [10] was -0.675 and the “glycan array binding signal (z-score)” value [11] was -0.445. For the same binder, the “glycan array binding signal (z-score)” value (GlcNAc(b1-6)GalNAc) was -0.322, the “glycan array binding signal (z-score)” value (GlcNAc3Prop(b1-4)GlcNAc) was -0.409 and the “glycan array binding signal (z-score)” value (Kdn(a2-3)Gal(b1-3)GlcNAc) was -0.63. For the same binder, the “glycan array binding signal (z-score)” value (Kdn(a2-3)Gal(b1-4)GlcNAc) was -0.439, the “glycan array binding signal (z-score)” value [12] was 0.693 and the “glycan array binding signal (z-score)” value [13] was -0.361. The “glycan array binding signal (z-score)” value (Man(a1-2)Man(a1-3)Man) was -0.416, the “glycan array binding signal (z-score)” value [14] was -0.411 and the “glycan array binding signal (z-score)” value [15] was -0.655. The “glycan array binding signal (z-score)” value [16] was 1.7, the “glycan array binding signal (z-score)” value [17] was -0.202 and the “glycan array binding signal (z-score)” value [18] was -0.78. The “glycan array binding signal (z-score)” value [19] was -0.317, the “glycan array binding signal (z-score)” value (Man(a1-3)[Man(a1-6)]Man) was -0.592 and the “glycan array binding signal (z-score)” value [20] was -0.228. The “glycan array binding signal (z-score)” value [21] was -0.914, the “glycan array binding signal (z-score)” value [22] was -0.082 and the “glycan array binding signal (z-score)” value [23] was -0.139. For the same binder, the “glycan array binding signal (z-score)” value (Man(a1-6)Man) was -0.137, the “glycan array binding signal (z-score)” value (Man(b1-4)GlcNAc) was -0.645 and the “glycan array binding signal (z-score)” value (Neu5Ac(a2-3)Gal) was -0.43. For the same binder, the “glycan array binding signal (z-score)” value [24] was -0.229, the “glycan array binding signal (z-score)” value [25] was -0.525 and the “glycan array binding signal (z-score)” value [26] was -0.223. The “glycan array binding signal (z-score)” value [27] was -0.534, the “glycan array binding signal (z-score)” value [28] was 0.321 and the “glycan array binding signal (z-score)” value [29] was -0.64. The “glycan array binding signal (z-score)” value [30] was -0.722, the “glycan array binding signal (z-score)” value [31] was 1.12 and the “glycan array binding signal (z-score)” value [32] was -0.521.
